Assay results reported in the supplement of paper PMC3334620.
The full ranking holds about 33,000 sequences; the median of “E-score (-0.5 to 0.5)” is about -0.017, and the highest 2% start at about 0.3. Some of the results follow.

Biological target: T1, Sut1 (UniProt P53032)
T1 sequence: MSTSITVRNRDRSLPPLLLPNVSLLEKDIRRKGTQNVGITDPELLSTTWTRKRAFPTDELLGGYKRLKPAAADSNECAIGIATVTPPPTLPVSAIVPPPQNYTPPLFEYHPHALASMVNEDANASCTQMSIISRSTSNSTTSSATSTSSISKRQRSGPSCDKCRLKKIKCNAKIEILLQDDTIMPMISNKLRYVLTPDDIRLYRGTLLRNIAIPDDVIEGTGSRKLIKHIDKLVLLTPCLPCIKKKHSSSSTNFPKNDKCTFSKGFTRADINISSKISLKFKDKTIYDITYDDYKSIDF
Test: PBM E-score (8-mer binding enrichment) (E-score (-0.5 to 0.5)); higher = stronger / more preferred TF binding; most listed sequences are background and not binding sites
Details: protein concentration: 200 nM; construct: GST-full length
Method in brief: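 GST-tagged yeast TFs (full-length or DNA-binding domain) were made by PURExpress in vitro transcription/translation and applied at about 100-200 nM to universal all-10-mer Agilent arrays. The arrays were made double-stranded by primer extension, on fresh or once-stripped slides. Bound protein was detected with fluorescent anti-GST, and scans were normalised with masliner. Each ungapped eight-base word, pooled with its reverse complement, received an E-score (modified Wilcoxon-Mann-Whitney statistic) from the Universal PBM Analysis Suite.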

Sequence | PBM E-score
AGTATGCG | -0.112
CCCCGCCA | 0.0248
AGACTTAT | 0.0322
GCACCCGA | -0.149
AAATAATA | 0.311
AACGTGCT | -0.167
TGTGCTAA | 0.126
GGACTTTA | 0.347
AACTCTCG | 0.146
AACCTTAG | 0.00759
GGACCCGA | -0.0142
GTGACAAA | -0.0491
TCGTGAAA | -0.115
TAAATACA | 0.249
CGCGCAGA | 0.0428
ATGGTGGG | -0.249
TAATGAAA | 0.154
TACTTACA | 0.115
AGGACATC | 0.0505
CAGGCGAG | -0.24
AACTCCTC | 0.0852
GCGGCATA | -0.18
ATCGGAAA | 0.302
GCCTACCC | -0.252
GTTCAAGA | 0.034

Sequence | PBM E-score
ATGGAGCA | -0.0739
CCGCCGTC | -0.153
GCCCTACC | -0.0916
CACACTAG | -0.06
ACGACGTG | -0.136
TGACAGCA | -0.0132
ACGAATGA | 0.0196
GGCTACAA | -0.0173
CGACTTGA | 0.06
ACCAGTGA | -0.0679
CTAGCCTC | -0.268
GAATTGAA | 0.176
CCACTGTA | 0.00351
AATCGGAC | 0.338
AAGTCCAC | -0.139
GCGTATCA | 0.024
CAGCGGCA | -0.249
GGCGTGAA | -0.145
ACTGAGCG | -0.248
CCTCCACG | -0.152
ATTTGCGA | 0.173
CGGGTAGA | -0.182
AAGGGGAG | -0.297
CATCACCA | 0.00625
ACCTTTTC | -0.0568

Sequence | PBM E-score
TCTAAAAA | 0.171
CTGCAGTA | -0.124
TGAAAGAA | 0.273
CCCGCCGC | 0.101
GTTTGACA | 0.0837
ACGCACGT | -0.151
ACGATAGA | -0.193
CCATGTTC | -0.134
AGATCCGG | 0.182
GACGCGAA | -0.122
AAAAGAAT | 0.249
CGCGTACC | 0.0139
TACGACAA | 0.151
CTACAGTC | -0.0316
ATCGCGGA | 0.129
GTGCGAAC | -0.0608
AGCCTTTA | 0.0463
ACAGGTAT | 0.0961
AGAAGATG | 0.027
ACCACTCC | 0.17
ACATAACG | 0.08
CCTTTATA | 0.0454
CCCCGTGC | 0.0476
ATTGCAGG | 0.0125
TTTACAAA | 0.123

Sequence | PBM E-score
AGATGGTG | -0.187
ATTGAAAT | 0.311
ATCATCAG | 0.0405
TATGTAAA | 0.285
CCGGCGCG | -0.125
CGGTTGGA | -0.114
AACAAGCA | 0.0347
CCGCTTCG | -0.114
AGTATCAA | 0.194
CAACGCGA | -0.0162
GTTGGCCA | -0.0893
GAACGAGA | 0.0625
ACCGCGCA | -0.018
ACGGACGC | 0.0681
AAACGTCA | -0.0156
CCACTACG | -0.0483
GGTGGGCA | -0.255
GAGACAGA | 0.104
ATTCGGTC | 0.0799
CCACGACA | -0.0467
CAGGGAGG | -0.345
CTGTTATC | 0.0957
ACGCTGGA | -0.00451
TAGTTGCA | 0.0448
CGTCAACC | 0.0396

Sequence | PBM E-score
GATATTTA | 0.262
GCGGGTGA | -0.128
GTTTTAAA | 0.296
CGTGCGGC | -0.0987
CAGAAGCG | 0.0442
ACCGTAGC | -0.123
GTGTCCAA | 0.0338
GTAATTAC | 0.214
GCCGCAGC | -0.118
ACCTCATG | -0.261
GGAGAATA | 0.118
GCCTCGAC | -0.203
ACGTAAGG | -0.169
AGTGGGAG | -0.0458
AGTGTCGC | -0.0929
ACAACCTG | -0.0712
ATAGATAT | 0.23
ATACACCA | 0.0476
AGATCTAG | -0.146
AGCATACT | -0.0279
ATTTGATA | 0.22
CTCGTACC | -0.178
CCATACTA | 0.105
TCTACGAA | -0.149
TCTGCAGA | -0.131

Sequence | PBM E-score
CGACTAAG | -0.125
GGCACACC | -0.275
ATTTTCCC | -0.105
GTATTTAA | 0.227
CAGGATGC | -0.171
GAAAAGAA | 0.12
AGCTGTGC | -0.246
AAGCATGC | -0.16
AGGGCCGA | -0.0391
ACGCGGCA | -0.177
CGGTAGCA | -0.0839
AAGTAAAT | 0.28
ATGGACAC | 0.0316
CTGCTTTC | 0.0261
AGGGCTGA | -0.161
AGGTAGCG | -0.173
TACACATA | 0.184
GAGGATAA | -0.13
ACTGAACA | 0.0273
ACGCCGGC | 0.154
GCATATGC | -0.184
AGCAAGAG | -0.153
AGAATGTA | 0.0887
GGTTGCAA | 0.00099
CCCGAACA | 0.0735

Sequence | PBM E-score
AACTGCTT | 0.0271
CGGAAATA | 0.337
ATTGGTTA | 0.121
AATAGCCC | -0.134
TACGCGGA | 0.187
ACGCCGCG | -0.184
AAGTACCT | -0.0797
CGAAATTC | 0.183
ATGCTGGC | -0.182
ACGATCAC | 0.0166
CGTCCCGA | -0.181
CCCTAGAA | -0.0151
ACACGTAT | 0.00676
CAGAACGG | 0.0607
GACTATAA | 0.205
AACCACCC | -0.281
ACTGATCC | -0.157
AATCACAG | -0.0326
CAATTACG | 0.0305
AAACAAAT | 0.262
GCAAAACC | -0.0114
CTGAAACC | -0.0547
